Measurements published in PubChem BioAssay AID686970 (National Center for Advancing Translational Sciences (NCATS), 2013).
Values joined by “and” are separate entries in the source; they are usually repeats but may differ in a detail not shown here. Equal values may be shown once. About 6,000 (1.7%) of roughly 360,000 compounds were called active. Inconclusive results, whose numbers are uncertain, are shown with a selection of clear calls. Calls come from the whole dose curve; as a rule, active = well fitted cell-killing curve with a large enough effect; inconclusive = small, poorly fitted or top-dose-only effect, or effect the other way; inactive = flat fitted curve, though single readings scatter. Where the call is inconclusive, the potency comes from a doubtful curve fit.

Assay: qHTS for induction of synthetic lethality in tumor cells producing 2HG: qHTS for the HT-1080-NT fibrosarcoma cell line;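 note: NT is the 2HG producing partner of a matched IDH1 knockdown line; nearly all actives have a fitted effect of over 55% in size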;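 for activity, negative = less viability: 0% = DMSO-treated cells and -100% = media-only wells without cells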
Conditions: HT-1080-NT fibrosarcoma viability, CellTiter-Glo ATP luminescence, 48 h; activity, negative = less viability: at 46.1 µM (top of the series) unless noted
Method in brief: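 HT-1080-NT; 750 cells/well; 5% FBS RPMI; 48 h compound, 37 degrees C; CellTiter-Glo luminescence; curve fitting and curve-class assignment.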
Potency is the fitted concentration of half-maximal effect; tags give direction and shape of the fitted curve.

Structure (SMILES)	Potency	activity, negative = less viability
CC(=O)NC(NC(=S)Nc1ccc(N=Nc2ccccc2)cc1)C(Cl)(Cl)Cl (stereo not drawn)	inconclusive: 29.1 µM [cytotoxic, single point]	–
C/C(=N\Nc1nc2ccccc2[nH]1)c1ccc(Cl)s1	inconclusive: 29.1 µM [cytotoxic, single point]	–
Cc1ccccc1CNC(=O)C1CCCN(c2nnc(C)c3c(C)n(-c4ccccc4)nc23)C1 (stereo not drawn)	inconclusive: 29.1 µM [cytotoxic, single point]	–
OCCCN=c1cc(-c2ccccc2)oc2ccc(Cl)cc12	inconclusive: 18.4 µM [cytotoxic, single point]	–
COc1cc(NS(=O)(=O)c2ccc(N/C=C(\C#N)c3nc4cc(Cl)ccc4o3)cc2)nc(OC)n1	inconclusive: 20.6 µM [cytotoxic, single point]	–
CC(=O)Nc1ccc(Nc2c3ccccc3nc3ccccc23)cc1	active: 14.6 µM	–
CS(=O)(=O)CCC(C(=O)OCc1ccc(Cl)cc1)N1C(=O)c2ccccc2C1=O (stereo not drawn)	inactive	–
COc1ccccc1CCNCc1ccc(OC)c(OCc2ccccc2)c1	inconclusive: 20 µM [cytotoxic, single point]	–
CC(=O)c1ccc(OCC(=O)N2CCCC(Nc3ccc(C)c(C)c3)C2)cc1 (stereo not drawn)	inactive	–
CC1CN(c2ccccc2)CCN1Cc1nc(Cc2ccccc2)no1 (stereo not drawn)	inactive	–
O=C(Nc1cccc(S(=O)(=O)C(F)F)c1)c1ccc(S(=O)(=O)N2CCCCC2)cc1	–	inconclusive: -32.8% [cytotoxic]
COc1ccc(-c2ccc(-c3nc4ccc(C)cn4c3NC3CCCCC3)cc2OC)cc1	inconclusive: 20.6 µM [cytotoxic, partial curve] and inconclusive: 20.6 µM [cytotoxic, single point]	–
CCOC(=O)c1ccc(Nc2ccc(C(C)=O)cc2)cc1	inactive	–
Cc1ccc(NC(=O)CSc2nc(N)c3c4c(sc3n2)CSC(C)(C)C4)cc1	inconclusive: 23.1 µM [cytotoxic, single point]	–
COc1ccc(-n2nnnc2C(c2cc3ccccc3o2)N2CCN(C/C=C/c3ccccc3)CC2)cc1 (stereo not drawn)	inactive	–
CCOC(=O)CSc1nc2c(c(=O)[nH]1)C(C)(CC)Cc1ccccc1-2 (stereo not drawn)	inconclusive: 5.17 µM [cytotoxic, full curve]	–
CC(C)C[C@H](NC(=O)c1nc[nH]c1C(=O)NC1CCNCC1)C(=O)OCc1ccccc1	inactive	–
O=[N+]([O-])c1cccc(/C=N/Nc2nc(NCc3ccccc3)nc(N3CCOCC3)n2)c1	inactive	–
CC(C)(C)NC(=O)CCN(/N=C/c1ccc([N+](=O)[O-])o1)C1=NS(=O)(=O)c2ccccc21	inconclusive: 29.1 µM [cytotoxic, single point]	–
COCCN1CCN(C(=O)C2CCC(=O)N(CCCc3ccccc3)C2)CC1 (stereo not drawn)	inconclusive: 9.2 µM [rising, partial curve]	–
CCNC(=O)C1(C)CCCN(Cc2ccc3ccccc3c2Br)C1 (stereo not drawn)	inconclusive: 29.1 µM [cytotoxic, single point]	–
Cc1ccc(-c2csc3nc4cc(C(N)=O)ccc4c(=O)n23)cc1	inconclusive: 23.1 µM [cytotoxic, single point]	–
Cc1ccc2c(c1)=N/C(=N\c1[nH]c(O)c3ccccc13)N=2	active: 23.1 µM	–
COc1cc(C(=O)Nc2ccc(Br)cc2C(=O)c2cc(OC)c(OC)c(OC)c2)cc(OC)c1OC	inconclusive: 22.4 µM [cytotoxic, single point]	–
CCCCn1c(CNC(=O)C23CC4CC(CC(C4)C2)C3)nnc1SC(C)CC (stereo not drawn)	–	inconclusive: -34.6% [cytotoxic]

Structure (SMILES)	Potency	activity, negative = less viability
COC(=O)c1sc(S(=O)(=O)NCc2cccs2)c(C(=O)OC)c1C	inactive	–
COc1cccc(C2c3cc4c(cc3OC(N3CCCC3)C2C)OCO4)c1O (stereo not drawn)	inconclusive: 18.4 µM [cytotoxic, single point]	–
O=C(CN1C(=O)/C(=C\c2cccs2)SC1=S)Nc1cccc(C(=O)O)c1	inconclusive: 23.1 µM [cytotoxic, single point]	–
CCCCCCCCN1C(=O)[C@H](CC(=O)NCCCOCCCC)C[C@@]2(C(=O)OC)CCCCC=C12	inconclusive: 29.1 µM [cytotoxic, single point]	–
C=CS(=O)(=O)N(Cc1ccccc1Br)[C@H](CO)Cc1ccccc1	inconclusive: 23.1 µM [cytotoxic, single point]	–
COc1cccc(-c2cc3nc(NCCN4CCCC4)n(C)c(=O)c3s2)c1	inconclusive: 20.6 µM [cytotoxic, single point]	–
COc1ccc(CNC(=O)COC(=O)c2ccc(Br)cc2)cc1	inactive	–
NC(c1csc(NC(=O)c2cccc(OC(F)(F)F)c2)n1)c1ccccc1Cl (stereo not drawn)	active: 23.1 µM	–
COc1cc(/C=C/C(=O)OCC(=O)Nc2ccc(C)c(S(=O)(=O)N3CCCCC3)c2)ccc1O	inconclusive: 1.46 µM [cytotoxic, partial curve, poor fit]	–
C=CC(=O)N1C/C(=C/c2ccc(Cl)cc2)C(=O)/C(=C\c2ccc(Cl)cc2)C1	active: 5.8 µM	–
C[C@H]1CN=C(N(C)C)N1CC1CCC(C(C)(C)C)CC1 (stereo partly drawn)	inconclusive: 14.6 µM [cytotoxic, single point]	–
CCc1nnc(NC(=O)CSc2nnc(-c3ccccc3NC(=O)c3ccccc3)o2)s1	active: 12.6 µM	–
Oc1ccc2ccccc2c1CNc1ccc(Br)cc1	inconclusive: 10.3 µM [cytotoxic, partial curve]	–
Cc1ccc(-c2nnn(CC(=O)N(CC(=O)NCC3CCCO3)c3ccc(F)c(Cl)c3)n2)o1 (stereo not drawn)	inactive	–
CC(C)Nc1ccc(Nc2ccnc3cc4ccccc4cc23)cc1	inconclusive: 6.51 µM [cytotoxic, full curve, poor fit]	–
OC(CN1CCOCC1)Cn1cnc2ccccc21 (stereo not drawn)	inconclusive: 20.6 µM [rising, single point]	–
O=C(CCN1CCCCC1)Nc1ccccc1	inactive	–
COc1ccc(CNC(=O)C2CC(c3cc(C(F)(F)F)cc(C(F)(F)F)c3)=NO2)cc1 (stereo not drawn)	inactive	–
CCOc1ccc(C(C)(C)C)cc1S(=O)(=O)Nc1ccncc1	inactive	–
CCN(CC)C(=O)c1ccc(-c2cccs2)s1	inactive	–
Cc1ccc(C)c(N2CCN(CC(=O)Nc3ccc4[nH]c(=O)[nH]c4c3)CC2)c1	inactive	–
CCOc1ccccc1Nc1nc(-c2sc(NC(=O)c3ccco3)nc2C)cs1	inactive	–
C#CCOCCOCCOCCNc1nc(N2CCOCC2)nc(N2CCN(C(=O)CCCCCCCCCCNC(=O)[C@@H]([C@H](C)CC)n3cc(CCCCCN)nn3)CC2)n1	inactive	–
COc1cc(C2=NOC(C(=O)NCc3ccc(F)cc3)C2)cc(OC)c1OC (stereo not drawn)	active: 1.12 µM	–
O=C(NNc1ccccc1)C(=O)NNS(=O)(=O)c1ccc([N+](=O)[O-])cc1	active: 2.06 µM	–

Structure (SMILES)	Potency	activity, negative = less viability
COc1ccc(-c2ccc(C(=O)NCCc3ccccc3)c3occc23)c(C)c1	inconclusive: 29.1 µM [cytotoxic, single point]	–
Cc1ccc(C(C)C)c(OCc2ccc(C(=O)N/N=C/c3ccc(O)c(O)c3)cc2)c1	inactive	–
CC(=O)Oc1ccc(C(=O)Nc2ccc3c(c2)OCCO3)cc1	inconclusive: 13 µM [cytotoxic, partial curve]	–
Cc1sc(NC(=O)c2ccco2)c(CN2CCCCC2)c1C	inactive	–
COc1ccc(Oc2c(Cl)cnn(-c3ccc(C)cc3)c2=O)cc1	inconclusive: 29.1 µM [cytotoxic, single point]	–
CC(C)c1ccc2c(c1)[C@H]1OCC[C@H]1[C@@H](c1cccs1)N2	active: 2.91 µM	–
O=C(NC1CCCCC1)C(c1cccnc1)N(C(=O)CCl)c1ccc(F)cc1 (stereo not drawn)	active: 13 µM	–
NC(c1ccccc1)c1csc(Nc2ccc(C(F)(F)F)cn2)n1 (stereo not drawn)	inconclusive: 20.6 µM [cytotoxic, single point]	–
CN(CC(=O)Nc1ccc(S(=O)(=O)N2CCCC2)cc1)Cc1ccc(Cl)cc1Cl	inactive	–
CCN1CCN(c2ccc(S(=O)(=O)N3CCCC3)cn2)CC1	inactive	–
O=C(/C=C/c1cccc([N+](=O)[O-])c1)NCCN1C(=O)S/C(=C\c2cccnc2)C1=O	inconclusive: 16.4 µM [cytotoxic, partial curve, poor fit]	–
O=C(Nc1nnc(-c2ccco2)o1)c1ccc(Cl)cc1	–	inconclusive: -18.4% [cytotoxic]
COCCNc1ncnc2c1ncn2[C@H]1CN(Cc2cccs2)C[C@@H](CO)O1	–	inconclusive: 16.8%
COc1cc(NC(=O)c2cc(C)on2)cc(C(=O)Nc2cccc(C(F)(F)F)c2)c1	inconclusive: 29.1 µM [cytotoxic, single point]	–
CCn1cc(C(=O)NCc2ccco2)c(=O)c2cc(S(=O)(=O)N3CCCCCC3)ccc21	active: 14.6 µM	–
COc1cc2nc(N3CCN(c4cc(C)ccc4C)CC3)nc(N)c2cc1OC	active: 2.59 µM	–
Cc1cc(=O)oc2cc(OC(C)C(=O)NC3(C#N)CCCCC3)ccc12 (stereo not drawn)	inactive	–
COc1ccc(CCCC(=O)N/N=C/c2cccc(OC)c2O)cc1C	inconclusive: 2.91 µM [cytotoxic, full curve]	–
COc1ccc(NC(=O)c2ccccc2C(=O)N2CCCCC2)cc1	inactive	–
COc1ccc(-c2c[n+]3c4n2CCCCC4=C(c2ccc(Br)cc2)C3)cc1	inconclusive: 35.5 µM [cytotoxic, single point]	–
CC(=O)Nc1ccc(S(=O)(=O)NCCC(=O)NCc2ccco2)cc1	inactive	–
Oc1ccccc1C1NN=C(c2ccccc2)S1 (stereo not drawn)	inactive	–
O=C(N/N=C\c1cc(Br)cs1)C1COc2ccccc2O1 (stereo not drawn)	inconclusive: 29.1 µM [cytotoxic, single point]	–
